# Results from patent US11058699B2, “Method and compositions for inhibition of double stranded DNA viruses” (WISCONSIN ALUMNI RESEARCH FOUNDATION, priority 2008, dated 2021).
# Tested on: HPV16 LCR-driven RL containing pseudovirions hpv16wpA-RL
# Experiment: hpv16wpA-RL pseudovirion infectivity assay (Renilla luciferase) in HaCaT cells
# Type: cell-based
# Details: for HPV infection in cells kept arrested: HaCaT cells treated 24 hours before hpv16wpA-RL virions added, block maintained
SMILES,HPV infection in cells kept arrested,"inhibitory effect on HPV infection (HaCaT cells, different concentrations of monastrol)"
C[C@@]1(CO)[C@H](O)CC[C@@]2(C)[C@H]1CC[C@H]1C[C@@H]3C[C@@]12CC[C@]3(O)CO [aphidicolin],significantly and consistently inhibited,
COc1cc([C@@H]2c3cc4c(cc3[C@@H](O[C@@H]3O[C@@H]5CO[C@@H](C)O[C@H]5[C@H](O)[C@H]3O)[C@H]3COC(=O)[C@H]23)OCO4)cc(OC)c1O [etoposide],significantly and consistently inhibited,
CCOC(=O)C1=C(C)NC(=S)NC1c1cccc(O)c1 (stereo not drawn) [monastrol],,no inhibitory effect
